Measurements reported in paper PMC4336329 (PLoS ONE, 2015).
About 14,000 (4.5%) of roughly 310,000 compounds showed an effect of 50% or more. The effect is printed as a negative number. This is one part of the list.

target: human ether-à-go-go-related gene (hERG) potassium channel (human, UniProt Q12809); assay: primary screen, population patch clamp on CHO cells stably expressing hERG
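Also: peak tail current of the secondary pulse compared with the same well before compound.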

Chain of human ether-à-go-go-related gene (hERG) potassium channel (Q12809 whole entry, looked up): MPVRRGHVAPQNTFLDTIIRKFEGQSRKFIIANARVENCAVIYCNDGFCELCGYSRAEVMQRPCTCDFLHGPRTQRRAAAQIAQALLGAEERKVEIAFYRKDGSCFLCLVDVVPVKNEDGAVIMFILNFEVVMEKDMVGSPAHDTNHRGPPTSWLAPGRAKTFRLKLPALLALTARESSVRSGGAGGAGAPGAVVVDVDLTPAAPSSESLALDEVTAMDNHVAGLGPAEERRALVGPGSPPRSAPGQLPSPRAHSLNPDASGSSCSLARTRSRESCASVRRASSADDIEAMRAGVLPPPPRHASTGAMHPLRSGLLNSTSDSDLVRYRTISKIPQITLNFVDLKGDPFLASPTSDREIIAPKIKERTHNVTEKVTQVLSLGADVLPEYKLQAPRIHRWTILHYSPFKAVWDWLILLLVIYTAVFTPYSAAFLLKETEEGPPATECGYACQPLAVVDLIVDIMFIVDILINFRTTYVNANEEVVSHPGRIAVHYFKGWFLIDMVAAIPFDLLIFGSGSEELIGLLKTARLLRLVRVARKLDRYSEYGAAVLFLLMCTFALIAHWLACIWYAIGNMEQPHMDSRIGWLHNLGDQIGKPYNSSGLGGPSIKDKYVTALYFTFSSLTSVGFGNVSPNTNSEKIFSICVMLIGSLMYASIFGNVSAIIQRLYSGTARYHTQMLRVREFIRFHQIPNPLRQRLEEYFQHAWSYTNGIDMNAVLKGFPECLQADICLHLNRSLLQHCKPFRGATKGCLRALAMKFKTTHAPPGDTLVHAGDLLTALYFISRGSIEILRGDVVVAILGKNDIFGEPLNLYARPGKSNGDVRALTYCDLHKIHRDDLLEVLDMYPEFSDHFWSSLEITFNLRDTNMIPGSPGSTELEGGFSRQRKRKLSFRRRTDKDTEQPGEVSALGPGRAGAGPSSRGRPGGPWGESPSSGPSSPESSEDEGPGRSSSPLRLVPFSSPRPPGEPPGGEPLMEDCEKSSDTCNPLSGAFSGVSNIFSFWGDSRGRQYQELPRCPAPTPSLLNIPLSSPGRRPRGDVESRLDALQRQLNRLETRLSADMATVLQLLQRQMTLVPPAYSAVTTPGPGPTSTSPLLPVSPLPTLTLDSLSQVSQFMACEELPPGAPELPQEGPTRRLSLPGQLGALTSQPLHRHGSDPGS

Row | Compound | hERG current change (%, negative = inhibition) at 10uM [%]
1 | Cc1cc(NC(=O)CSc2nnnn2-c2ccc(C)c(C)c2)no1 | 16.2
2 | CCCCn1c(N)c(N(CCOC)C(=O)c2cc(-c3ccco3)nc3ccccc23)c(=O)[nH]c1=O | 2.93
3 | O=C(Oc1ccc2c(=O)c(Oc3ccc4ccccc4c3)coc2c1)c1cncc(Br)c1 | 8.89
4 | O=C(COC(=O)CNC(=O)c1sc2ccccc2c1Cl)NC1CCS(=O)(=O)C1 (stereo not shown) | -13.7
5 | CCC(C)(C)NC(=O)CCCSc1nc2ccccc2[nH]1 | -4.51
6 | Clc1ccccc1OCCCn1ccnc1 | 11.4
7 | CC(Sc1nc2sc3c(c2c(=O)n1-c1ccccc1)CCCC3)C(=O)O (stereo not shown) | 7.27
8 | NC(=O)c1ccc(-c2noc(-c3ccccc3F)n2)cc1 | 11.5
9 | O=C(CCSc1ccccc1)NC1CCCCCC1 | -4.31
10 | CCOc1ccc(Cn2nnc(C(=O)NCc3ccccc3)c2N)cc1 | 11.6
11 | CCn1c(C)c(C)c2cc(C(=O)N3CCN(c4cccc(C)c4C)CC3)ccc21 | 7.77
12 | CC1CCCCC1NC(=O)COC(=O)c1ccc2c(c1)OCCO2 (stereo not shown) | 1.98
13 | COc1ccccc1NC(=O)CN1CCN(c2ccccn2)CC1 | -27
14 | Cc1ccc(OCC(=O)Nc2ccc3c(c2)nc(CCN2CCOCC2)n3C)cc1 | -51.3
15 | CCOc1ccc(S(=O)(=O)NCCC(=O)N2CCN(c3ccc(OC)cc3)CC2)cc1 | -19.1
16 | Cc1ccc(Nc2nc(-c3ccncc3)nc3ccccc23)cc1 | 14.3
17 | CS(=O)(=O)c1ccc2nc(NC(=O)Nc3ccc(Cl)c(Cl)c3)sc2c1 | 6.88
18 | Cc1ccccc1Nc1nc(N)nc(CN2CCN(Cc3ccc4c(c3)OCO4)CC2)n1 | -68
19 | CC(C)(C)C1CCC(OCC(O)CN2CCCC2)CC1.Cl (stereo not shown) | -30.8
20 | COc1ccc(NC(=O)c2cn(-c3ccccc3)nc2-c2cc3ccccc3o2)cc1 | 6.67
21 | CCN(CC)C(=O)CN1C(=O)NC2(CCc3ccccc3C2)C1=O (stereo not shown) | 25.7
22 | COc1ccccc1CCC(=O)N(Cc1ccccc1)c1c(N)n(Cc2ccccc2)c(=O)[nH]c1=O | -3.88

Row | Compound | hERG current change (%, negative = inhibition) at 10uM [%]
23 | O=S(=O)(c1ccccc1)N1CCN(Cc2ccccc2)CC1 | 19.3
24 | CC1CC(O)(CC(O)(c2ccccc2)c2ccccc2)C(C)CN1C (stereo not shown) | -12.2
25 | C/C(=N/NS(=O)(=O)c1ccc(Cl)cc1)c1cccc(NC(=O)c2ccc(Cl)cc2Cl)c1 | 5.75
26 | COc1cc2c(cc1OC)C(C)N(C(=O)c1cc3n(n1)C(C(F)(F)F)CC(c1ccco1)N3)CC2 (stereo not shown) | -1.64
27 | CCOc1ncccc1C(=O)OCC(=O)N1CC(=O)Nc2ccccc21 | 8.81
28 | COc1ccc(CN2CC(C(=O)N3CC(C)CC(C)C3)CC2=O)cc1 (stereo not shown) | -16.4
29 | COc1cc(-c2nc3n(n2)C(c2ccc(F)cc2)C2=C(CCCC2=O)N3)cc(OC)c1OC (stereo not shown) | 0.0473
30 | Cc1cccc(NC(=O)CN(C)S(=O)(=O)c2cccc3cccnc23)c1 | -19.2
31 | CCOCCCNC(=O)CN(Cc1ccc(Cl)cc1)S(C)(=O)=O | 3.99
32 | CCc1cc(C(c2ccncc2)N2CCN(C)CC2)c(NC(=O)c2ccccc2)s1 (stereo not shown) | -40.2
33 | Cn1c(Cn2c(=O)sc3ccccc32)nnc1SCc1cccc(F)c1 | -11.6
34 | Cc1c(C(=O)c2ccc(Cl)cc2Cl)cnc2cc3c(cc12)OCO3 | 10.6
35 | CCOCCCn1c(SCC(=O)Nc2ccccc2OC)nc2ccccc2c1=O | -45
36 | S=c1nc(C23CC4CC(CC(C4)C2)C3)nc2sccn12 | 9.55
37 | COc1ccc2c(c1)C(=O)[C@H](O)[C@@H](c1ccc(OC)c(Br)c1)O2 | 12.9
38 | CC(C)NC(=O)N1CCN(c2ccncc2S(=O)(=O)N2CCCCC2)CC1 | 5.19
39 | Cc1c(Br)cnn1C(C)C(=O)N1CCN(c2ccc(F)cc2)CC1 (stereo not shown) | -37.8
40 | CCOC(=O)c1c(N)n(CCN2CCCCC2)c2nc3ccccc3nc12 | -25.1
41 | CN(C)C(=O)c1nc2ccc(Cl)cn2c1CNCc1cccc(OC(F)(F)F)c1 | -26.7
42 | CCC(C)(C)NC(=O)C(OC(=O)c1ccco1)c1ccc(OC)cc1 (stereo not shown) | 3.2
43 | CCCn1c2c(c(O)c(C(=O)NC)c1=O)CCCC2 | -6.66
